# Data as given in PMC4336329 (PLoS ONE, 2015).
# Out of some 310,000 compounds screened, about 14,000 (4.5%) showed an effect of 50% or more. Effects have a minus sign here. The list shows a part of the results.
# Target: human ether-à-go-go-related gene (hERG) potassium channel (human, UniProt Q12809)
# Assay: primary screen, population patch clamp on CHO cells stably expressing hERG
# 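Note: peak tail current of the secondary pulse compared with the same well before compound.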
# Sequence of human ether-à-go-go-related gene (hERG) potassium channel (Q12809 whole entry, looked up): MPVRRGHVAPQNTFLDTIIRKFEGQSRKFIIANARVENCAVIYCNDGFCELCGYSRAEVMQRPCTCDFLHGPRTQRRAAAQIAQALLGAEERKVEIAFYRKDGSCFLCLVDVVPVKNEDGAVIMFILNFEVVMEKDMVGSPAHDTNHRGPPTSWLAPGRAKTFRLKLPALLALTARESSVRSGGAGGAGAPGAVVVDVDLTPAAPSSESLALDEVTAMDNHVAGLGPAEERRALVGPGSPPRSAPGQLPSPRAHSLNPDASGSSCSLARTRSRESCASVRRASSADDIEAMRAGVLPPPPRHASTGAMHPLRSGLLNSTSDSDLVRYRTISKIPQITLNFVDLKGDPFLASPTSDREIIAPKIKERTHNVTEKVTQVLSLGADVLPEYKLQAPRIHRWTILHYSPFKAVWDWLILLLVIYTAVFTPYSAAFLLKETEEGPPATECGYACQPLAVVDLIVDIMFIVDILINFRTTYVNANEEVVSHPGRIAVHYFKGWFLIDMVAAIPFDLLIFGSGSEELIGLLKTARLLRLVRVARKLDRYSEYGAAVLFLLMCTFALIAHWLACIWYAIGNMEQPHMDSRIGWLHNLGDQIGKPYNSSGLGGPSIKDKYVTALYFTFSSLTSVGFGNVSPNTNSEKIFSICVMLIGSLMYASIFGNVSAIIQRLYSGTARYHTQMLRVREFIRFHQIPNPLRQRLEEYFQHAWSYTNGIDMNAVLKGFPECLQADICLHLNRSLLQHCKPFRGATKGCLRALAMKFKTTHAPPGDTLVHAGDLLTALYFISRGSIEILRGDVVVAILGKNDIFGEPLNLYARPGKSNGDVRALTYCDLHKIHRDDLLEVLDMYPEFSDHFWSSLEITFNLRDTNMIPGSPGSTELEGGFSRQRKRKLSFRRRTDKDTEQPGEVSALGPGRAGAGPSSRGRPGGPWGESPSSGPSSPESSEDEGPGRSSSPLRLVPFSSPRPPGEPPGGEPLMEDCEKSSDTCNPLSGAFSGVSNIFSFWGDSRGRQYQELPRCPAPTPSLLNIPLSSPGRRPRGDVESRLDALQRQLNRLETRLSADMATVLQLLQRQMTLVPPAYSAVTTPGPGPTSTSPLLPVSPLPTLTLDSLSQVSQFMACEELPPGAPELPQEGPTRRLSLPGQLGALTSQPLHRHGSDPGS
row,SMILES,"hERG current change (%, negative = inhibition) at 10uM"
1,O=C(OCc1cnc(Cl)s1)c1ccccc1Cl,-14%
2,CN(C)C(=S)Nc1ccc([N+](=O)[O-])cc1,-0.053%
3,Cc1ccc2c(c1)CC(C)N2S(=O)(=O)c1nnc(NC(=O)CC(C)C)s1 (stereo not shown),34.1%
4,Cc1ccc(S(=O)(=O)N2[C@@H](c3cccc(Cl)c3)C(C(=O)O)=CC[C@H]2c2ccc3c(c2)OCO3)cc1,15.3%
5,CCn1c(SCC(=O)Nc2cc(OC)ccc2OC)nc2c(c1=O)SCC2,-14.4%
6,Nc1ccc2oc3ccccc3c2c1,-10.3%
7,CC1(C)CC(=O)C(CC(=O)Nc2cc(C(F)(F)F)ccc2Cl)C(=O)C1,14.8%
8,O=C(NCCCn1ccnc1)c1cc(S(=O)(=O)N2CCOCC2)c(Cl)cc1Cl,11.8%
9,CNC(=O)CSCc1cnn(-c2ccccc2)c1-n1cccc1,-4.68%
10,COc1ccnc(-n2cccc2/C=N/O)c1C#N,-13.9%
11,CC(C)C(=O)Nc1ccc(-c2csc(-c3ccccc3)n2)cc1,1.32%
12,CCn1c(=O)c([N+](=O)[O-])c(N2CCN(Cc3ccc4c(c3)OCO4)CC2)c2ccccc21,-3.18%
13,Cc1noc(C)c1C(=O)N1CCCC(C(=O)c2cccc(OC(C)C)c2)C1 (stereo not shown),-1.08%
14,COc1ccccc1Nc1ncc(C(=O)N2CCC(C(N)=O)CC2)c2ccccc12,1.89%
15,COC(=O)c1cc2occc2n1CC(=O)Nc1ccc(OC)c(OC)c1OC,0.151%
16,Cc1cccc(NC(=O)c2ccc(NC(=O)CC3SC(N4CCCC4)=NC3=O)cc2)n1 (stereo not shown),-1.94%
17,O=C(Nc1cccc(-c2cccc(Cl)c2)c1)C1CCN(CC2CCOC2)CC1 (stereo not shown),-77.2%
18,CCc1nnc(NC(=O)CSc2nnc(CNc3ccc(F)cc3)n2C2CCCCC2)s1,-6.63%
19,CC(C)(C)OC(=O)N[C@@H](CC(=O)OCc1ccccc1)C(=O)O,10.9%
20,Cc1cc[n+](CC[n+]2ccc(C)cc2)cc1.[Br-],16.7%

row,SMILES,"hERG current change (%, negative = inhibition) at 10uM"
1,CN(C)S(=O)(=O)N1CCCN(S(=O)(=O)N(C)C)CC1,-0.127%
2,Cc1ccc(C(=O)N/C(=C\c2cccs2)C(=O)N2CCN(C)CC2)cc1C,-70.6%
3,CCCCCC(=O)Nc1nc2ccccc2[nH]1,5.71%
4,CCc1c(O)nc(SCC(=O)N2CCc3cc(OC)c(OC)cc3[C@@H]2C)[nH]c1=O,0.651%
5,O=C(Nc1cccnc1Cl)c1cccs1,21.4%
6,c1ccc(OCc2noc(CN3CCC(C4CCCCC4)C3)n2)cc1 (stereo not shown),-12%
7,CN(C)C(=O)N1CCC(C(=O)NC2CCCCCCC2)CC1,-0.795%
8,NS(=O)(=O)c1ccc(NC(=O)COC(=O)c2ccco2)cc1,61%
9,O=C(c1cc(C(=O)c2ccco2)cc(C(=O)c2ccco2)c1)c1ccco1,0.697%
10,O=[N+]([O-])c1cc(Cl)ccc1N1CCCC1,5.05%
11,COc1ccc(S(=O)(=O)N(Cc2cc3cc(C)ccc3[nH]c2=O)CC2CCCO2)cc1 (stereo not shown),-0.625%
12,[O-][n+]1cccc2ncc3cscc3c21,24.2%
13,O=C(Nc1cccc2ccccc12)OC1C=CS(=O)(=O)C1 (stereo not shown),7.41%
14,CC(NC1CCCCC1)C(=O)NN=C(c1ccccc1)c1ccccc1 (stereo not shown),-32.1%
15,CC1(OC(=O)c2cccs2)C(=O)C=C2C=C(C3CC3)OC=C2C1=O (stereo not shown),9.34%
16,C=CCNC(=S)Nc1sc2c(c1C#N)CCCC2,18.7%
17,O=C(CSc1ccc(-c2cccnc2)nn1)Nc1ccc(F)c(F)c1,-37.9%
18,O=C(COc1ccc(Cl)cc1)NCc1ccccc1,-10.4%
19,O=C(CN1C(=O)NC2(CCCC2)C1=O)Nc1cccc(Cl)c1,11.6%
20,COc1ccc(Cc2c(O)nc(SCC(=O)N3CCCCCC3)[nH]c2=O)cc1,2.36%

row,SMILES,"hERG current change (%, negative = inhibition) at 10uM"
1,CCOC(=O)C(NCCc1ccc(F)cc1)(NC(=O)CC)C(F)(F)F (stereo not shown),1.9%
2,Cc1cc(C)cc(NC(=S)N(C)C)c1,-5.83%
3,CCC(C)NCCCOc1ccc(C)cc1OC (stereo not shown),-18.2%
4,O=C(Nc1ccc([N+](=O)[O-])cc1)C1COc2ccccc2O1 (stereo not shown),0.793%
5,O=C(NCCc1ccccc1F)C1CCCN(c2nc3ccccc3s2)C1 (stereo not shown),-35.5%
6,NCc1ccccc1COc1ccccc1.O=C(O)/C=C\C(=O)O,0.866%
7,CC(C)CC(=O)c1c[nH]c(C(=O)NCc2ccc(F)cc2)c1,-3.98%
8,CC(=Nc1ccccc1)C1=C(O)CSC1=O,-7.93%
9,O=S(=O)(c1ccc2ccccc2c1)N1CCNCC1,5.63%
10,CC1CCCN(C(=O)COC(=O)c2ccc[nH]c2=O)C1 (stereo not shown),14.8%
11,CCCC(C(=O)NC1CCCC1)N(CCCN1CCOCC1)C(=O)c1snc(C(N)=O)c1N (stereo not shown),-19.7%
12,COc1ccc(S(=O)(=O)N[C@@H](C)C(=O)OCC(=O)Nc2cc3oc4ccccc4c3cc2OC)cc1,3.12%
13,c1csc(-c2cnc3ccccc3n2)c1,-8.21%
14,C[C@@H]1CCC[C@]2(O[C@@H](CCO)C[C@@H](O)[C@@H]2O)O1,6.32%
15,Cc1n[nH]c(C)c1S(=O)(=O)N1CCC(C(=O)N2CCn3c2nc2ccccc23)CC1,-3.79%
16,CCc1noc(C)c1C(=O)NC1CCCc2c1cnn2-c1ccc(C(C)(C)C)cc1 (stereo not shown),10.2%
17,CCN(CC)CC(=O)Nc1c2c(nc3ccccc13)N(C)CC2.O=C(O)C(=O)O,16.5%
18,C[N+](C)(C)CCOC(=O)CBr.[Br-],9.55%
